# Data reported in the supplement of paper PMC3334620.
# Over roughly 33,000 sequences, “E-score (-0.5 to 0.5)” has its median near -0.013; the highest 2% begin near 0.3. This is one part of the list.
# Target: T1, Msn1 (UniProt P22148)
# T1 sequence: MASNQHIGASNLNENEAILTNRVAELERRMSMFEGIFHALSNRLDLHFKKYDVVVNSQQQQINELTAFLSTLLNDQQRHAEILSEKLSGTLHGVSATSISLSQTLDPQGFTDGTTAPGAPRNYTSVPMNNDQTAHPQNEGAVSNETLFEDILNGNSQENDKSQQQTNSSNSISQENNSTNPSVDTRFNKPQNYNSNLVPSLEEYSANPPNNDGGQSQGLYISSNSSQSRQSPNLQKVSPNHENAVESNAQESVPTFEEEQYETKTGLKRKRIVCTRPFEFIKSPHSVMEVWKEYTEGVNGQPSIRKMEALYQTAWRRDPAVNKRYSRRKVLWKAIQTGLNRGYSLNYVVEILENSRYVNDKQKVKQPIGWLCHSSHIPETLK
# Experiment: PBM E-score (8-mer binding enrichment) (E-score (-0.5 to 0.5)); higher = stronger / more preferred TF binding; most listed sequences are background and not binding sites
# Conditions: protein concentration: 200 nM; construct: GST-full length
# Protocol: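 Universal 'all 10-mer' protein binding microarrays (Agilent AMADID 015681) probed with GST-tagged S. cerevisiae TFs (full-length or DBD) made by in vitro transcription/translation (PURExpress), about 100-200 nM. Bound TF was detected with fluorescent anti-GST. Each ungapped 8-mer (which stands for itself and its reverse complement) is scored by the PBM enrichment score (E-score), a modified Wilcoxon-Mann-Whitney statistic from -0.5 to +0.5, computed with the Universal PBM Analysis Suite. Scale: above 0.35 generally sequence-specific binding.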
row,Sequence,PBM E-score
1,CCTCGGAA,0.261
2,CTCAATAA,-0.0223
3,TCAACACA,0.0421
4,AGTCCAAT,0.0396
5,GCGCGGCA,-0.0194
6,TACCGTAA,0.0902
7,AAAGGGTC,-0.0303
8,AGGGCACG,-0.245
9,GCTATCGA,-0.0543
10,CTCCTCAC,-0.275
11,GTAGTCCA,-0.057
12,CATTCATA,0.219
13,ACCCTAAG,0.0961
14,CTAGGGCA,-0.169
15,AGTCTCGC,0.118
16,AAAGCCTA,-0.127
17,TCTCTTCA,0.071
18,TAGGTGAA,0.0103
19,CTCCCCAG,-0.197
20,ATGTGTTA,0.157
21,GCGACCAA,0.144
22,CGCGTAAA,0.108
23,AACGGCAA,0.036
24,ATGCATCC,-0.0718
25,GAATCCTA,0.115

row,Sequence,PBM E-score
1,CCCGGTAC,-0.1
2,CCTGCACA,-0.243
3,ATGCATAA,-0.0709
4,CTTGGTGC,-0.0641
5,CAAACATG,0.0463
6,ACCTTGGC,-0.161
7,AGCCAAAA,0.0448
8,ACGTCGTC,-0.0679
9,CACAATAC,-0.0413
10,TGCGTCCA,-0.0747
11,AGTTCGTA,0.233
12,CTTGGTTC,0.129
13,CTTCCGCA,-0.018
14,CTATGGAA,0.0795
15,ACATATCA,0.319
16,CTGGAAAG,-0.0435
17,CGAGTGGC,-0.181
18,AAGCCGGG,-0.12
19,TCCCTACA,-0.0166
20,AAAGGGGC,-0.121
21,GAATACCA,-0.103
22,GTAGGAAC,0.0233
23,CGTTGTGA,-0.0853
24,CCCAAGTC,-0.0805
25,CACAGAAA,0.0606

row,Sequence,PBM E-score
1,CGGCATAA,0.0825
2,GACTATGA,-0.0391
3,CCTCTCAC,-0.23
4,TTAACCAA,0.109
5,GAAACGCA,-0.0736
6,CTCAGGGC,-0.176
7,CTGCCTCC,-0.303
8,CAATGCCG,0.00213
9,GATTAGCC,0.0324
10,AAATACGG,0.0232
11,TATTCTCA,0.0146
12,AATTTGCC,0.0969
13,CTTCGACC,0.0099
14,ATACCAAT,0.0642
15,TCTTCGAA,-0.0952
16,CTAAGAAC,0.0633
17,CACATGAA,0.0613
18,ATAAGAAC,0.222
19,CAGCACGG,0.0193
20,ACGAGTAG,-0.0655
21,AACTTATA,0.166
22,ATCAGCGG,-0.0761
23,AGGCTCTC,-0.171
24,CCCTAGTC,-0.187
25,GAAGGCTC,-0.291

row,Sequence,PBM E-score
1,CTGACGCA,-0.174
2,CCACCGTA,-0.0261
3,CTGTGCAA,-0.136
4,CCGTGACC,-0.101
5,GCAGTGAA,0.0767
6,AACGGTGT,-0.00302
7,CACACATA,0.0356
8,CAGTACTC,0.0207
9,TACGTCAA,-0.253
10,CCTGAGCG,-0.181
11,AACTAATG,0.123
12,ACCATTAA,0.0863
13,ATTCCTTA,0.0299
14,AACCCAGA,-0.00144
15,GAACTTAA,0.104
16,TTAACGAA,0.0868
17,AGGCACGC,-0.159
18,ATCATTGA,0.0367
19,CTTCCGCC,-0.228
20,GTATGACA,0.294
21,ATGAGAGC,-0.216
22,GTAACATA,0.0742
23,CCACTATC,-0.0754
24,GTTTGCTA,0.0867
25,CGAACTAG,-0.038

row,Sequence,PBM E-score
1,CAGTTTCA,-0.22
2,CGTCTATC,-0.0463
3,CTTGTAGA,-0.152
4,GTACCCAC,-0.13
5,CATAGTAC,-0.0797
6,GGTTCCGA,0.15
7,GAACCCTC,-0.12
8,ATCCGAAG,0.0243
9,AGGCGCAA,0.0394
10,TTCCGCAA,0.156
11,ATATCCCG,0.216
12,AGACCGCC,-0.214
13,ATCACCAA,-0.0626
14,CCCGGACG,-0.156
15,ATCCCACC,-0.128
16,CGCATTTA,0.193
17,CCCAGAGG,-0.306
18,CGGTGGGC,-0.214
19,CAACCTTG,-0.0125
20,AGCAGTGC,-0.207
21,TTGCGCAA,0.209
22,TAGGCGGA,0.122
23,TAGGGTCA,-0.0503
24,ACATCGAC,0.131
25,AATTTACT,0.2

row,Sequence,PBM E-score
1,CTCAGATA,0.154
2,AACTTCGA,0.0961
3,AAGTATGT,0.102
4,CTTATTGC,-0.199
5,CAGGCGCA,0.0204
6,AATAACAT,0.0555
7,AGAACGTG,-0.0907
8,AATCTGTA,0.131
9,ATCACATC,-0.0349
10,GTCCTACA,0.385
11,AGCATAAG,0.0713
12,ACTTGATC,0.178
13,GGACGTTA,0.0129
14,AGATCTGC,0.0313
15,AGACTGCT,-0.0486
16,GCGTTCCC,-0.183
17,AAACATCT,0.151
18,GGTATCCA,-0.044
19,AGTAATCG,0.0169
20,AACTAGCA,0.0468
21,GTTGGTCA,0.151
22,ACATCCTG,0.192
23,AGCATTGC,-0.0447
24,CGACCGGC,-0.0696
25,CGGCAAAG,-0.0995

row,Sequence,PBM E-score
1,GGGTACAA,0.198
2,ACGTTTCA,0.111
3,ACCATCAC,-0.114
4,GCGAACTA,0.0518
5,GACTACCC,-0.138
6,AATAGGCG,0.118
7,AAAATCCA,0.0954
8,AACTCTGT,0.00473
9,CGCCTACC,-0.113
10,AGACGTGC,0.154
11,AGCCTGTA,-0.0734
12,GCGTAAGA,0.0196
13,AACGGAGG,-0.0317
14,AGTGATTC,-0.0424
15,ACGGTAAT,-0.178
16,ACATCAGA,0.115
17,GATGCATC,0.105
18,AAAGGCCC,-0.106
19,AGCATTCA,-0.23
20,ATCCATAA,0.124
21,GACTAATC,0.121
22,GTCCCAAC,0.283
23,GTAGAGTA,0.04
24,GGTCACAA,-0.0198
25,CAAGGTGC,-0.0203

row,Sequence,PBM E-score
1,ACTAATTC,0.214
2,CCCCTGGC,-0.32
3,CGAGATGA,-0.0953
4,CAGTGAAG,0.0282
5,AACCTGGC,-0.174
6,ATCTTGGG,0.0615
7,AGTCTAAC,-0.192
8,AAACGCCG,0.135
9,GAGAGGGC,-0.445
10,ACCTCTGA,-0.116
11,GCAACACA,-0.0152
12,AACCATGT,0.0974
13,ACCGAATG,-0.0786
14,CATTTAAC,0.188
15,CCCAAGGA,-0.0833
16,CTCGCCAC,-0.205
17,ATTCACCG,0.0949
18,GTATCGAC,0.0727
19,CCGTCAAG,-0.0984
20,CAACGGGG,-0.0441
21,ATCACCAT,0.0597
22,AACAATAA,0.21
23,ACGGCTTC,-0.0486
24,GAGAATGA,0.153
25,GTTGATAA,0.116

row,Sequence,PBM E-score
1,GGCCTCCA,-0.116
2,CGACCACG,-0.0124
3,CTGCAGCC,-0.0859
4,ATCGCCGC,-0.111
5,GTCCGCGA,0.183
6,AAGGTGCC,-0.0665
7,CTGACAAC,0.108
8,AGTATGGC,-0.0129
9,AGGTTTCG,-0.0543
10,ATCAGGAC,0.307
11,AAGCTGAA,0.0186
12,GGAGCACC,-0.19
13,ACTTGCCG,-0.08
14,ATCGAGTG,0.103
15,GTGTGACA,0.17
16,CGGATCGC,-0.0183
17,GGACGGCA,-0.11
18,ATTTCTCC,-0.0307
19,AACTTTCT,0.13
